For this experiment, the target named is T1, PD-L1 on mouse melanoma B16F10 cells (control pLKO/B16F10 and DRG2 knock-down shDRG2/B16F10) (mouse, UniProt Q9EP73).
T1 construct: whole, on cells; Same protein in control and DRG2 knock-down cells; the difference reported is the cell's state (surface location of PD-L1), not a variant of the protein; also called programmed death-ligand 1; CD274
In words: flow cytometry, recombinant PD-1 Fc on fixed B16F10 cells, anti-human Alexa Fluor 488 secondary. The procedure: Specifically, FIG. 4A illustrates flow cytometry results for interactions between recombinant PD-1 and PD-L1 in melanoma.
To measure PD-1 and PD-L1 protein interactions, suspension cells were immobilized with 4% paraformaldehyde at room temperature for 15 minutes and incubated with a recombinant human PD-1 Fc protein (R&D Systems) for 1 hour. An anti-human Alexa Fluor 488 dye conjugate (Life Technologies) was used as a secondary antibody. Nuclei were stained with DAPI (blue; Life Technologies). Then, the fluorescence intensity of Alexa Fluor 488 dye was measured using a FACS flow cytometry analyzer (Becton Dickinson, Inc.).

T1 sequence (Q9EP73 19-290, one chain of several): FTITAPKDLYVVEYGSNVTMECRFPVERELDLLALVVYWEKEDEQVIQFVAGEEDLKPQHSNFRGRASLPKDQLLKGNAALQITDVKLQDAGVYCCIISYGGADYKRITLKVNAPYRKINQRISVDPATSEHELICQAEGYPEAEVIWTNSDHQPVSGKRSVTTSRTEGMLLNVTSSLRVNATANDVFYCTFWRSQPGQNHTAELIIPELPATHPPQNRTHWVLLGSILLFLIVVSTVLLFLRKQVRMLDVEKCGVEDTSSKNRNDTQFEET

B1: recombinant human PD-1 Fc protein (R&D Systems) (Fc fusion)
chain: not shown
notes: Bought reagent (R&D Systems); also called recombinant PD-1; PD-1 protein; not shown: Fc part of the bought fusion protein
As to B1, the binding result was “binds”.
